Assay results from the supplement of paper PMC12217912.
Some of the results follow. Sequences were assembled here from the parent chain. Inactive controls read about 0.05.

B1: TEV protease; numbered along this chain (parent)
chain: MGESLFKGPRDYNPISSSICHLTNESDGHTTSLYGIGFGPFIITNKHLFRRNNGTLVVQSLHGVFKVKDTTTLQQHLVDGRDMIIIRMPKDFPPFPQKLKFREPQREERICLVTTNFQTKSMSSMVSDTSCTFPSGDGIFWKHWIQTKDGQCGSPLVSTRDGFIVGIHSASNFTNTNNYFTSVPKNFMELLTNQEAQQWVSGWRLNADSVLWGGHKVFMVKPEEPFQPVKEATQL

Variants of: B1
Test: raw area under fraction-flipped curve 0-4 h after induction (AUC4h, not background-subtracted), DNA-recorder readout of cleavage of the substrate (dimensionless); higher = more cleavage of the substrate by the protease variant
Details: temperature: 34 °C; time window: 0-4 h after rhamnose induction
Procedure: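 In vivo DNA recorder in E. coli TOP10(DE3) ΔrhaA at 34 °C. Each TEVp single-site mutant (parent TEVp 0) is paired with a single-site variant of the 7-mer TEVs (canonical ENLYFQ|S). The substrate sits between flexible linkers in a Bxb1-sfGFP-TEVs-SsrA fusion, so cleavage stabilises Bxb1 and speeds flipping of a recombination array, read by NGS. The value is the raw area under the fraction-flipped curve over 0-4 h after rhamnose induction (AUC4h), with ≥20 reads per time point. It is not background-subtracted; inactive controls average about 0.047.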
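Note: Bxb1 expression induced with 0.2% (w/v) L-rhamnose at OD600 near 0.5, cultures sampled hourly, flipped fraction per protease–substrate barcode pair counted by paired-end Illumina sequencing.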

Variant	area with substrate ENAYFQS	area with substrate ENCYFQS	area with substrate ENDYFQS	area with substrate ENEYFQS	area with substrate ENGYFQS	area with substrate ENHYFQS	area with substrate ENIYFQS	area with substrate ENKYFQS	area with substrate ENMYFQS	area with substrate ENPYFQS	area with substrate ENQYFQS	area with substrate ENRYFQS	area with substrate ENSYFQS	area with substrate ENTYFQS	area with substrate ENVYFQS	area with substrate ENFYFQS	area with substrate ENNYFQS	area with substrate ENWYFQS	area with substrate ENYYFQS
MGESLFKGPRDYNPISSSICLLTNESDGHTTSLYGIGFGPFIITNKHLFRRNNGTLVVQSLHGVFKVKDTTTLQQHLVDGRDMIIIRMPKDFPPFPQKLKFREPQREERICLVTTNFQTKSMSSMVSDTSCTFPSGDGIFWKHWIQTKDGQCGSPLVSTRDGFIVGIHSASNFTNTNNYFTSVPKNFMELLTNQEAQQWVSGWRLNADSVLWGGHKVFMVKPEEPFQPVKEATQL [H21L]	0.062	0.0688	0.0624	0.0633	0.065	0.0593	0.068	0.0489	0.0495	0.0827	0.0537	0.0804	0.0427	0.0535	0.098	–	–	–	–
MGESLFKGPRDYNPISSSICHLTNESLGHTTSLYGIGFGPFIITNKHLFRRNNGTLVVQSLHGVFKVKDTTTLQQHLVDGRDMIIIRMPKDFPPFPQKLKFREPQREERICLVTTNFQTKSMSSMVSDTSCTFPSGDGIFWKHWIQTKDGQCGSPLVSTRDGFIVGIHSASNFTNTNNYFTSVPKNFMELLTNQEAQQWVSGWRLNADSVLWGGHKVFMVKPEEPFQPVKEATQL [D27L]	0.0568	0.0822	0.0624	0.0652	0.0639	0.0634	0.0943	0.0662	0.0803	0.0558	0.0567	0.0605	0.0568	0.0823	0.0594	0.0469	0.0492	0.0059	0.0538
MGESLFKGPRDYNPISSSICHLVNESDGHTTSLYGIGFGPFIITNKHLFRRNNGTLVVQSLHGVFKVKDTTTLQQHLVDGRDMIIIRMPKDFPPFPQKLKFREPQREERICLVTTNFQTKSMSSMVSDTSCTFPSGDGIFWKHWIQTKDGQCGSPLVSTRDGFIVGIHSASNFTNTNNYFTSVPKNFMELLTNQEAQQWVSGWRLNADSVLWGGHKVFMVKPEEPFQPVKEATQL [T23V]	0.0625	–	0.0621	0.0617	0.0431	0.0607	0.103	–	0.083	0.063	0.0643	0.0341	0.0704	–	0.0837	–	0.0647	–	0.0626
MGESLFKGPRDYNPISSSICHLHNESDGHTTSLYGIGFGPFIITNKHLFRRNNGTLVVQSLHGVFKVKDTTTLQQHLVDGRDMIIIRMPKDFPPFPQKLKFREPQREERICLVTTNFQTKSMSSMVSDTSCTFPSGDGIFWKHWIQTKDGQCGSPLVSTRDGFIVGIHSASNFTNTNNYFTSVPKNFMELLTNQEAQQWVSGWRLNADSVLWGGHKVFMVKPEEPFQPVKEATQL [T23H]	0.0695	0.0724	–	0.068	0.0539	0.0551	–	0.0609	0.0731	0.0568	0.0636	0.0364	0.081	–	0.0738	0.0516	0.0371	–	0.0594
MGESLFKGPRDYNPISSSICHLTNESDFHTTSLYGIGFGPFIITNKHLFRRNNGTLVVQSLHGVFKVKDTTTLQQHLVDGRDMIIIRMPKDFPPFPQKLKFREPQREERICLVTTNFQTKSMSSMVSDTSCTFPSGDGIFWKHWIQTKDGQCGSPLVSTRDGFIVGIHSASNFTNTNNYFTSVPKNFMELLTNQEAQQWVSGWRLNADSVLWGGHKVFMVKPEEPFQPVKEATQL [G28F]	0.0504	0.0573	–	0.05	0.0404	0.0722	0.149	–	–	0.0624	0.0653	0.0589	–	0.0561	0.0625	0.0543	0.0553	0.0511	0.0635
MGESLFKGPRDYNPISSSICHLTNLSDGHTTSLYGIGFGPFIITNKHLFRRNNGTLVVQSLHGVFKVKDTTTLQQHLVDGRDMIIIRMPKDFPPFPQKLKFREPQREERICLVTTNFQTKSMSSMVSDTSCTFPSGDGIFWKHWIQTKDGQCGSPLVSTRDGFIVGIHSASNFTNTNNYFTSVPKNFMELLTNQEAQQWVSGWRLNADSVLWGGHKVFMVKPEEPFQPVKEATQL [E25L]	0.0419	0.0834	0.0596	0.0589	0.0517	–	0.111	0.0539	–	0.0566	0.0633	0.0636	0.0587	–	0.0784	0.0824	0.0524	–	0.033
MGESLFKGPRDYNPISSSICHLTNVSDGHTTSLYGIGFGPFIITNKHLFRRNNGTLVVQSLHGVFKVKDTTTLQQHLVDGRDMIIIRMPKDFPPFPQKLKFREPQREERICLVTTNFQTKSMSSMVSDTSCTFPSGDGIFWKHWIQTKDGQCGSPLVSTRDGFIVGIHSASNFTNTNNYFTSVPKNFMELLTNQEAQQWVSGWRLNADSVLWGGHKVFMVKPEEPFQPVKEATQL [E25V]	0.0692	0.0683	0.056	0.0638	0.0599	0.0911	0.105	0.064	–	–	0.0561	0.0678	0.0562	0.0601	0.0694	0.0578	0.0347	–	0.0822
MGESLFKGPRDYNPISSSICHLTNDSDGHTTSLYGIGFGPFIITNKHLFRRNNGTLVVQSLHGVFKVKDTTTLQQHLVDGRDMIIIRMPKDFPPFPQKLKFREPQREERICLVTTNFQTKSMSSMVSDTSCTFPSGDGIFWKHWIQTKDGQCGSPLVSTRDGFIVGIHSASNFTNTNNYFTSVPKNFMELLTNQEAQQWVSGWRLNADSVLWGGHKVFMVKPEEPFQPVKEATQL [E25D]	0.0586	0.0637	–	0.0686	0.0606	0.0601	0.107	0.061	0.0869	0.0538	0.0579	0.0683	0.0859	0.0674	0.0774	–	0.0741	–	0.0491
